According to the supplement of paper PMC12067230:
Single values of this set are uncertain.

B1: library; a variant is named by its letters at X, in order (parent)
chain: EASNCFAIRHFENKFAVETLICXXXXXXXXX

Variants of: B1
Test: amyloid nucleation score relative to library mode (yeast Sup35 reporter selection) (log enrichment difference); higher = more amyloid nucleation; sequences are the first 22 residues of the Bri2 peptide extended by up to 12 random residues
Details: random library (experiment): 1;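 active = nucleation score significantly above 0 at FDR 0.05; inactive = not significantly above 0 or absent from output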
Procedure: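 Random C-terminal extensions of the 22-aa Bri2 peptide by 12 NNK codons; premature stops give shorter extensions. Peptides were fused to the Sup35 nucleation domain in S. cerevisiae [psi-pin-] and selected on -ADE-URA plates for 7 d at 30 °C. The nucleation score is log(output/input), centred to the mode of each of 3 independent libraries (1 input, 3 technical output replicates), with duplicates merged. Sequences absent from the output ('random_non_nuc') were imputed with the library mode value, so they are given as censored (<). Nucleators are scores significantly >0 at FDR 0.05.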
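Also: [psi-pin-] Saccharomyces cerevisiae expressing SupN fusions, induced by 100 µM Cu2SO4, selected 7 d at 30 °C without adenine and uracil, scored by deep sequencing of output versus input.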

| Variant | amyloid nucleation score |
| --- | --- |
| EASNCFAIRHFENKFAVETLICQSTAQFVSQ [QSTAQFVSQ] | 0.645 |
| EASNCFAIRHFENKFAVETLICDSTYPHGNV [DSTYPHGNV] | inactive |
| EASNCFAIRHFENKFAVETLICESVRVSGTA [ESVRVSGTA] | inactive |
| EASNCFAIRHFENKFAVETLICTSVSPQMQM [TSVSPQMQM] | 1.75 |
| EASNCFAIRHFENKFAVETLICVSVVYSRVG [VSVVYSRVG] | inactive |
| EASNCFAIRHFENKFAVETLICMSWPIMWYM [MSWPIMWYM] | inactive |
| EASNCFAIRHFENKFAVETLICLSYQVYVPF [LSYQVYVPF] | 2.22 |
| EASNCFAIRHFENKFAVETLICWSYRLVTAA [WSYRLVTAA] | inactive |
| EASNCFAIRHFENKFAVETLICISYSSTYQV [ISYSSTYQV] | -0.0479 |
| EASNCFAIRHFENKFAVETLICFTCCGWLVG [FTCCGWLVG] | 8.39 |
| EASNCFAIRHFENKFAVETLICVTCIMFNRC [VTCIMFNRC] | 4.82 |
| EASNCFAIRHFENKFAVETLICITELRYSHC [ITELRYSHC] | inactive |
| EASNCFAIRHFENKFAVETLICYTHVSGLCY [YTHVSGLCY] | inactive |
| EASNCFAIRHFENKFAVETLICVTLLEPTPL [VTLLEPTPL] | inactive |
| EASNCFAIRHFENKFAVETLICFTRCGLSGR [FTRCGLSGR] | 2.41 |
| EASNCFAIRHFENKFAVETLICETRTVIDGK [ETRTVIDGK] | 0.636 |
| EASNCFAIRHFENKFAVETLICWTSQVLKYK [WTSQVLKYK] | inactive |
| EASNCFAIRHFENKFAVETLICHTVPRASPG [HTVPRASPG] | -0.171 |
| EASNCFAIRHFENKFAVETLICVTVRNFMGD [VTVRNFMGD] | inactive |
| EASNCFAIRHFENKFAVETLICYTYLNKYNS [YTYLNKYNS] | 2.8 |
| EASNCFAIRHFENKFAVETLICGTYRRMAYK [GTYRRMAYK] | -0.0664 |
| EASNCFAIRHFENKFAVETLICWVAEGHPFK [WVAEGHPFK] | inactive |
| EASNCFAIRHFENKFAVETLICEVAGVVRLG [EVAGVVRLG] | 1.54 |
| EASNCFAIRHFENKFAVETLICFVGMVWVYR [FVGMVWVYR] | -0.227 |
| EASNCFAIRHFENKFAVETLICGVHLSRGNL [GVHLSRGNL] | inactive |

| Variant | amyloid nucleation score |
| --- | --- |
| EASNCFAIRHFENKFAVETLICRVKNGCMSS [RVKNGCMSS] | inactive |
| EASNCFAIRHFENKFAVETLICLVKVYPWCM [LVKVYPWCM] | inactive |
| EASNCFAIRHFENKFAVETLICGVLCFDSGC [GVLCFDSGC] | 7.29 |
| EASNCFAIRHFENKFAVETLICVVLDRFAVI [VVLDRFAVI] | 6.46 |
| EASNCFAIRHFENKFAVETLICGVLLGGDVR [GVLLGGDVR] | 3.75 |
| EASNCFAIRHFENKFAVETLICDVLRVALFV [DVLRVALFV] | inactive |
| EASNCFAIRHFENKFAVETLICVVPMELGCR [VVPMELGCR] | inactive |
| EASNCFAIRHFENKFAVETLICKVRYQRFLV [KVRYQRFLV] | inactive |
| EASNCFAIRHFENKFAVETLICTVSPGGMDK [TVSPGGMDK] | -0.195 |
| EASNCFAIRHFENKFAVETLICCVTWLVSAH [CVTWLVSAH] | 1.38 |
| EASNCFAIRHFENKFAVETLICFVVFSKLVK [FVVFSKLVK] | inactive |
| EASNCFAIRHFENKFAVETLICWVVITRGSG [WVVITRGSG] | inactive |
| EASNCFAIRHFENKFAVETLICVWCSNRSGS [VWCSNRSGS] | 8.79 |
| EASNCFAIRHFENKFAVETLICNWHRERPWR [NWHRERPWR] | 4.32 |
| EASNCFAIRHFENKFAVETLICQWMYYVPFL [QWMYYVPFL] | 0.165 |
| EASNCFAIRHFENKFAVETLICNWNECPCNR [NWNECPCNR] | 8.88 |
| EASNCFAIRHFENKFAVETLICRWQSGIGFC [RWQSGIGFC] | inactive |
| EASNCFAIRHFENKFAVETLICLWRGGFDAY [LWRGGFDAY] | inactive |
| EASNCFAIRHFENKFAVETLICMWRRNFCWP [MWRRNFCWP] | inactive |
| EASNCFAIRHFENKFAVETLICGWYSVSHEG [GWYSVSHEG] | 2.44 |
| EASNCFAIRHFENKFAVETLICGYEYRNEGS [GYEYRNEGS] | inactive |
| EASNCFAIRHFENKFAVETLICWYGDYDKKR [WYGDYDKKR] | inactive |
| EASNCFAIRHFENKFAVETLICIYMMIRTYA [IYMMIRTYA] | inactive |
| EASNCFAIRHFENKFAVETLICRYRGNCYVG [RYRGNCYVG] | inactive |

Same assay, conditions: random library (experiment): 2

| Variant | amyloid nucleation score |
| --- | --- |
| EASNCFAIRHFENKFAVETLICFAEYVDRPT [FAEYVDRPT] | inactive |
| EASNCFAIRHFENKFAVETLICFAFSSVYMI [FAFSSVYMI] | 2.91 |
| EASNCFAIRHFENKFAVETLICFAVNYISGF [FAVNYISGF] | 7.6 |
| EASNCFAIRHFENKFAVETLICLAWFTGVKS [LAWFTGVKS] | inactive |
| EASNCFAIRHFENKFAVETLICLCEGMLTNV [LCEGMLTNV] | inactive |
| EASNCFAIRHFENKFAVETLICWCFAHGLYR [WCFAHGLYR] | 4.02 |
| EASNCFAIRHFENKFAVETLICVCILQFRSS [VCILQFRSS] | 0.528 |
| EASNCFAIRHFENKFAVETLICRCNWRTVYI [RCNWRTVYI] | -0.678 |
| EASNCFAIRHFENKFAVETLICFCSVKGCCG [FCSVKGCCG] | inactive |
| EASNCFAIRHFENKFAVETLICICTRLNQLG [ICTRLNQLG] | 3.37 |
| EASNCFAIRHFENKFAVETLICYCVSIRIGV [YCVSIRIGV] | inactive |
| EASNCFAIRHFENKFAVETLICFDCAGQSPI [FDCAGQSPI] | 4.66 |
| EASNCFAIRHFENKFAVETLICQDQFSIYCR [QDQFSIYCR] | 1.61 |
| EASNCFAIRHFENKFAVETLICCDRASSPGM [CDRASSPGM] | 2.61 |
| EASNCFAIRHFENKFAVETLICVDRFWFQFE [VDRFWFQFE] | 2.6 |
| EASNCFAIRHFENKFAVETLICDDSRNRLCT [DDSRNRLCT] | inactive |
| EASNCFAIRHFENKFAVETLICWDVINRTLR [WDVINRTLR] | 3.94 |
| EASNCFAIRHFENKFAVETLICVDVWSDIIW [VDVWSDIIW] | 4.72 |
| EASNCFAIRHFENKFAVETLICREKNCVLAS [REKNCVLAS] | inactive |
| EASNCFAIRHFENKFAVETLICYELKAFKHS [YELKAFKHS] | 3.32 |
| EASNCFAIRHFENKFAVETLICIELSNICRV [IELSNICRV] | 4.22 |
| EASNCFAIRHFENKFAVETLICRERRVHTRI [RERRVHTRI] | 0.806 |
